# Reference: PubChem BioAssay AID1745853 (National Center for Advancing Translational Sciences (NCATS), 2022)
# The other results are listed elsewhere or left out. Shown are side measurements of this screen, not its main read-out; they come without a call.
# What was measured:
# Experiment in all cases: Primary Screen for Target Class Profiling of Small Molecule Inhibitors of Methyltransferases
# [1] = target: Glycine N-methyltransferase (Homo sapiens) (UniProt Q14749); conditions: purified enzyme, MTase-Glo SAH luminescence; measured here: GNMT inhibition; at 40 µM; stronger effect = lower value
# Summary of the method: (§1)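 Each enzyme was assayed with SAM and its substrate. SAH formation detected by MTase-Glo luminescence; single-point 40 uM screen[…].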
# [2] = target: Guanidinoacetate N-methyltransferase (Homo sapiens) (UniProt Q14353); conditions: purified enzyme, MTase-Glo SAH luminescence; measured here: GAMT inhibition; at 40 µM; stronger effect = lower value
# Summary of the method: as §1
# [3] = target: Histamine N-methyltransferase (Homo sapiens) (UniProt P50135); conditions: purified enzyme, MTase-Glo SAH luminescence; measured here: HNMT inhibition; at 40 µM; stronger effect = lower value
# Summary of the method: as §1
# [4] = target: Nicotinamide N-methyltransferase (Homo sapiens) (UniProt P40261); conditions: purified enzyme, MTase-Glo SAH luminescence; measured here: NNMT inhibition; at 40 µM; stronger effect = lower value
# Summary of the method: as §1
# [5] = target: Phenylethanolamine N-methyltransferase (Homo sapiens) (UniProt P11086); conditions: purified enzyme, MTase-Glo SAH luminescence; measured here: PNMT inhibition; at 40 µM; stronger effect = lower value
# Summary of the method: as §1
# % is scaled to controls: 0 for no effect and ±100 for the full control effect.
Structure (SMILES),"activity change, negative = inhibition [1]","activity change, negative = inhibition [2]","activity change, negative = inhibition [3]","activity change, negative = inhibition [4]","activity change, negative = inhibition [5]"
CC(C)CCNC(=O)c1ccc2c(=O)[nH]c3c(C(=O)NC(C)C)sc(=S)n3c2c1,-18.6%,0%,-7.37%,-31%,-29.4%
CNC(=O)CCn1ccc2cc(S(=O)(=O)N3CCC(C)CC3)ccc21,1.83%,0%,1.37%,-1.1%,-2.9%
NC1CCCCN(C(=O)c2ccc3n[nH]nc3c2)C1 (stereo not given),1.76%,3.2%,3.55%,-1.93%,1.53%
COCC1CN(C)CC12CCN(C(=O)CC1=CCCCC1)CC2 (stereo not given),-1.51%,-0.273%,-8.5%,-6.58%,0.413%
COc1cccc(N2CCN(C(=O)CCC[C@@H]3[C@H]4CCCN5CCC[C@@H](CN3C)[C@@H]45)CC2)c1,0.721%,1.47%,-24.2%,-5.05%,14.1%
CC1(C)CCC2(C(=O)O)CCC3(C)C(=CCC4C5(C)CCC(O)C(C)(CO)C5C(O)CC43C)C2C1 (stereo not given),0.937%,4.32%,5.3%,-8.99%,4.46%
CCOCCOC1CCN(C(=O)c2cnccn2)CC1,0.366%,1.32%,2.21%,0.165%,-10.3%
C=CC(=O)N1CCCN(c2cc(NCCC(=O)O)nc(-c3ccccn3)n2)CC1,0.641%,4.65%,3.9%,-9.17%,-2.29%
O=C(Cc1cccs1)N1CCN(c2cc(C(F)(F)F)ncn2)CC1,-6.46%,-6.28%,-2.39%,-9.69%,-26.6%
O=c1c2ccccc2n2c(-c3cccc(Cl)c3)nnc2n1CCc1ccccc1,-1.08%,2.53%,4.54%,-3.1%,-6.93%
COc1cc2oc(-c3ccc(O)cc3O)cc2c(OC)c1CC=C(C)C,1.1%,8.71%,6.39%,-3.66%,-5.58%
CCN1C(=O)c2cc3ccccc3n2CC1(C)C(=O)NCc1ccccc1OC (stereo not given),7.1%,3.16%,6.96%,8.91%,2.9%
COCCN1C(=O)c2cccn2CC1CNS(=O)(=O)c1c(C)noc1C (stereo not given),-2.96%,-4.02%,-0.345%,-12.6%,-6.07%
COC(=O)c1cc2n(n1)CC(C)(C(=O)NC1CCCCC1)N(CCc1ccc(SC)cc1)C2=O (stereo not given),1.54%,0%,13.1%,1.04%,5.89%
COc1ccc(C[C@H](NC(=O)[C@@]2(O)C[C@@H](O)[C@H](O)[C@@H](NS(=O)(=O)c3cccc(C(F)(F)F)c3)C2)C(N)=O)cc1,-1.24%,-1.47%,0.291%,1.58%,1.61%
CCc1c[nH]c2ncnc(N3CC[C@](N)(CNC(=O)c4ccc(F)cc4F)C3)c12,-10.4%,-6.26%,8.29%,-34.9%,-29.1%
CC(C)n1c(=O)c2ccc(C(=O)NC3CCCC3)cc2n2c(=O)n(CC(=O)NC3CCCC3)nc12,5.05%,0%,3.96%,4.51%,-0.576%
CC(C)c1ccc(-c2cc3n(n2)CC(C)(C(=O)NC2CCCCC2)N(Cc2cccs2)C3=O)cc1 (stereo not given),-3.33%,0%,2.55%,3.25%,-4.55%
CCc1ccc(NC(=O)Cn2nc3n(C(C)C)c(=O)c4ccc(C(=O)NCC(C)C)cc4n3c2=O)cc1,6.27%,0.219%,10.6%,-1.76%,5.88%
C=C(C)C(=O)OC1CC2(C)OC(=CC2=O)C(=C)CC2OC(=O)C(=C)C12 (stereo not given),-0.074%,-5.07%,0.905%,-13.5%,3.96%
Cc1ccc(CNC(=O)c2ncn3c2C(=O)N(C2CC2)C(C)(C(=O)NCc2ccc(F)cc2)C3)cc1 (stereo not given),-2.97%,4.8%,1.01%,-0.249%,-2.27%
CCCn1c(=O)c2ccccc2n2c(=O)n(CC(=O)NCc3ccc(OC)cc3)nc12,-5.05%,3.09%,2.19%,-2.48%,-1.62%
CC(C)Cn1c(=O)c2ccccc2n2c(=O)n(CC(=O)NC3CCCCC3)nc12,-1.75%,3.17%,0.77%,-3.77%,-4.89%
CC(C)CCn1c(=O)c2ccccc2n2c(=O)n(Cc3ccccc3)nc12,-3.67%,3.19%,3.21%,-12%,-3.07%
NC(N)=NC(N)=Nc1cccc(Cl)c1,6.29%,9.51%,-12.5%,-5.11%,-1.3%
CCOc1ccc(CCN2C(=O)c3cc4ccccc4n3CC2(C)C(=O)NCCC(C)C)cc1 (stereo not given),2.83%,4.62%,0.167%,1.37%,-4.77%
CCOC(=O)c1cc2n(n1)CC(C)(C(=O)NC1CCCC1)N(c1ccc(C)c(F)c1)C2=O (stereo not given),-1.35%,2.66%,-2.14%,3.07%,-4%
CCOc1ccc(N2C(=O)c3cc4occc4n3CC2(C)C(=O)NC2CCCC(C)C2C)cc1 (stereo not given),-6.59%,3.49%,-3.63%,-0.379%,-6.54%
CC1(C(=O)NC2CCCCCC2)Cn2c(nc3ccccc32)C(=O)N1CCCN1CCOCC1 (stereo not given),3.39%,3.4%,5.6%,3.99%,1.97%
